Experiments:
[1] = test system: yeasts belonging to the group of the Candida and Torulopsis; test: Growth inhibition by cycloheximide in the culture medium; type: cell-based; conditions: incorporated in the culture medium containing the substrate
Source text: Among the inhibitors which are suitable, there may be mentioned especially antibacterial substances (such as chloramphenicol, gentamycin and the like) and antifungal substances (such as cycloheximide and the like, which, in the presence of a specific substrate of the invention, such as H-L-Pro-pNA, only permit hydrolysis by Candida albicans) for eliminating the contaminants or selecting the strains which it is desired to identify.

Candida zeylanoides = test: Growth with maltose as the carbon source; conditions: 10 to 40 g/l
Source text: The specificity of the method of identification is ensured, according to the invention, by associating inhibitors with the substrate.
The carbon source will consist of a sugar, especially glucose or maltose, at a concentration of 10 to 40 g/l.

Compound | inhibition of growth of the yeasts which interfere with the specificity of the substrate for Candida albicans [1] | inhibition of the growth of the strains of Candida zeylanoides (Candida zeylanoides)
C[C@@H]1C[C@@H]([C@H](O)CC2CC(=O)NC(=O)C2)C(=O)[C@@H](C)C1 [cycloheximide] | inhibits the growth | –
OC[C@H]1O[C@H](O[C@H]2[C@H](O)[C@@H](O)C(O)O[C@@H]2CO)[C@H](O)[C@@H](O)[C@@H]1O (mixture of isomers) [maltose] | – | inhibiting the growth

— patent US5449612A, “Process for identifying candida by means of chromogenic substances” (Serbio, priority 1990, dated 1995)
